Measurements as given in PubChem BioAssay AID485281 (National Center for Advancing Translational Sciences (NCATS), 2010).
The campaign covered roughly 350,000 compounds. About 260 (0.074%) were called active. The inconclusive results got no clear call from the source; some entries with a clear call stand among them for comparison. Calls come from the whole dose curve; as a rule, active = well fitted inhibition curve with a large enough effect; inconclusive = small, poorly fitted or top-dose-only effect; inactive = no such curve, though single readings can be large or run the other way. Where the call is inconclusive, the potency comes from a doubtful curve fit.

molecular target: Ferritin light chain (Equus caballus) (UniProt P02791); assay: qHTS Assay for Identification of Novel General Anesthetics; conditions: apoferritin/1-aminoanthracene competitive binding, fluorescence; series mostly up to 77.5 µM; note: nearly all actives have a fitted effect of over 20% in size
Chain of UniProt P02791 (P02791 whole entry, looked up): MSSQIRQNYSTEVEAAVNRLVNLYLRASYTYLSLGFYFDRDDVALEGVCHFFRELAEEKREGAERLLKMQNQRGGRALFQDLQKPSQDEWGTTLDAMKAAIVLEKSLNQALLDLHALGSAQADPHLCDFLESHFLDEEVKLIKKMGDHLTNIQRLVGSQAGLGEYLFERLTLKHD
Method in brief: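 Steps: apoferritin (10 uM) was premixed with half-saturated 1-AMA in PBS, compounds were pin-transferred, plates stood 10 min at room temperature, fluorescence was read at 380/535 nm, and curves were fitted with a Hill equation.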
Potency is the fitted concentration of half-maximal effect; tags give direction and shape of the fitted curve.

Potency, inactive:
COc1cccc(CNc2ccc3nc(-c4ccc(N)cc4)c(OC)n3n2)c1
Fc1ccc(N/N=C/c2ccncc2)c(F)c1
Cc1ccc(Cn2ncc3c(N4CCN(Cc5ccc(Cl)cc5)CC4)ncnc32)cc1
CCOC(=O)c1nnn(-c2nonc2-n2cccc2)c1CCl
CC(=O)Nc1sc(N/N=C/c2ccccc2)nc1-c1ccc(C)cc1
O=C(CCCc1ccccc1)Nc1ccccn1
O=C(NNC(=S)NC(=O)c1ccccc1[N+](=O)[O-])c1ccccc1Cl

Potency, inconclusive:
O=[N+]([O-])c1ccc(CSc2ncnc3ccccc23)cc1 22.4 µM [inhibitor, partial curve]
Cc1c(C(=O)N2CCCCC2)c(S(=O)(=O)N2CCN(c3ccc(Cl)cc3)CC2)c(C)n1C 25.1 µM [inhibitor, single point]
O=C(CCCSc1nnc(-c2cccs2)n1CC1CCCO1)c1ccccc1 (stereo unspecified) 25.1 µM [inhibitor, partial curve]
CCOC(=O)CN1N=C(/C=C/c2ccc(C(C)C)cc2)CCC1=O 39.8 µM [inhibitor, single point]
Cc1cc(-c2ccc(/C=N/n3cnnc3)o2)c([N+](=O)[O-])cc1C 22.4 µM [inhibitor, partial curve]
O=[N+]([O-])c1cc(-c2ccc(/C=N/c3nc4ccccn4c3-c3ccco3)o2)ccc1Cl 7.08 µM [inhibitor, partial curve]
CC(=O)OC1c2c(ccc3ccc(=O)oc23)OC(C)(C)C1OC(=O)CC(C)C (stereo unspecified) 20 µM [inhibitor, partial curve]
Cc1cc2cc(CNC(=S)Nc3ccc(OC(F)F)cc3)ccc2n1C 25.1 µM [inhibitor, partial curve]
O=C(Nc1ccc(Cc2ccncc2)cc1)c1cccs1 44.7 µM [inhibitor, single point]
COc1ccnc(Oc2ccccc2)c1C(=O)N/C=N/OCc1ccc(F)cc1Cl 31.6 µM [inhibitor, partial curve]
O=C(C1CCN(S(=O)(=O)c2cccc3cccnc23)CC1)N1CCc2ccccc21 7.94 µM [inhibitor, full curve, poor fit]
CCOC(=O)c1ccc(S(=O)(=O)Nc2nc3cc(S(=O)(=O)NC4=NCCCCC4)ccc3s2)cc1 35.5 µM [inhibitor, single point]
Nc1c(C(=O)Nc2ccc(S(=O)(=O)N3CCCC3)cc2)sc2nc3ccc(OC(F)(F)F)cc3cc12 35.5 µM [inhibitor, partial curve]
O=C(Oc1cccc(C(=S)N2CCOCC2)c1)c1cc([N+](=O)[O-])cc([N+](=O)[O-])c1 39.8 µM [inhibitor, partial curve]
C(=N\n1cnnc1)/c1cccc(Oc2ccccc2)c1 14.1 µM [inhibitor, partial curve]
CCOC(=O)CSc1nnc2n(-c3ccccc3)c(=O)c3c4c(sc3n12)CC(C(C)(C)C)CC4 (stereo unspecified) 10 µM [inhibitor, partial curve]
O=C(CNC(=O)c1cccc(F)c1)N/N=C/c1ccc(O)c([N+](=O)[O-])c1 35.5 µM [inhibitor, partial curve]
O=C(CCN1CCN(CCO)CC1)Nc1ccc(OCc2ccccc2)cc1 15.8 µM [inhibitor, partial curve]
CCOC(=O)CSC1=C(C#N)C(C)C2=C(CCCC2=O)N1 (stereo unspecified) 44.7 µM [inhibitor, single point]
CC(NC(=O)c1cc(COc2cccc(C(F)(F)F)c2)on1)c1nccs1 (stereo unspecified) 35.5 µM [inhibitor, partial curve]
CC(=O)N1CCN=C1SCc1ccccc1Cl 22.4 µM [inhibitor, partial curve]
CC(C)N=C1NN=C(c2ccc(Cl)c(Cl)c2)CS1 25.1 µM [inhibitor, partial curve]
C/C=C(/C)C(=O)OC1c2c(ccc3ccc(=O)oc23)OC(C)(C)C1OC(C)=O (stereo unspecified) 31.6 µM [inhibitor, single point]
CCc1ccc(C(c2c(C)nn(-c3ccccc3)c2N)c2c(C)nn(-c3ccccc3)c2N)cc1 20 µM [inhibitor, partial curve]
Cc1cc(NC(=O)CSc2nnc(-c3ccc(Br)o3)n2Cc2ccccc2)no1 7.94 µM [inhibitor, partial curve]
CCOc1ccc(NC(=O)CN(C)C(=O)c2ccncc2)cc1OCC 31.6 µM [inhibitor, partial curve]
CCCc1ccc2oc(C(=O)N3CCN(c4cnccn4)CC3)c(C)c2c1 28.2 µM [inhibitor, partial curve]
CCOC(=O)N1CCC(N2C(=O)c3ccccc3C2Nc2ccc(S(=O)(=O)N(CC)CC)cc2)CC1 (stereo unspecified) 28.2 µM [inhibitor, single point]
CCCOc1ccc(OCCOCCN2CCc3ccccc3C2)cc1 35.5 µM [inhibitor, single point]
COc1ccccc1CN1C(=O)C2CC=CCC2C1=O (stereo unspecified) 8.91 µM [inhibitor, full curve]
Cc1cccc2[nH]c3c(N4CCN(C(=O)c5ccco5)CC4)ncnc3c12 25.1 µM [inhibitor, partial curve]
CCCC(C)C(=O)Nc1ccc(S(N)(=O)=O)cc1 (stereo unspecified) 39.8 µM [inhibitor, partial curve]
COc1ccc(NC(=O)CSc2nnc(-c3ccccc3)n2Cc2ccco2)c(OC)c1 14.1 µM [inhibitor, partial curve, poor fit]
C/C(=N/NC(=O)c1ccc(C)nc1)c1ccc2c(c1)CCCC2 20 µM [inhibitor, partial curve]
